From patent US20210147571A1, “MONOCLONAL ANTIBODY TARGETING HUMAN TUMOR STEM CELLS AND USE THEREOF” (Suzhou Bojuhua Biomedical Technology Co. Ltd, priority 2017, published 2021)

How the values were obtained:
[1] = tested on: BGC-823 cells; assay: flow immunofluorescence, positive cells in parental and sphere cells; type: binding, human
Description: (§1) The human gastric cancer cell line SNU-5 and BGC-823 cells were cultured for 5 days in a serum-free manner, and the Hetumomab^+ cells in the parental cells and in the cells from sphere culture were detected by viable cell flow fluorescence cytometry. […] That is, after the serum-free culture, Hetumomab^+ cells of the gastric cancer cell line were enriched.
(§2) As described above, four cell lines, SNU-5, BGC-823, MHCC-97L, and BEL7402 V13, were used to harvest both parental cells and tumor-stem-cell-rich sphere cells. […] The results are as follows:
(§3) According to the aforementioned method, four cell lines, SNU-5, BGC-823, MHCC-97L, and BEL7402 V13, were used to harvest both parental cells and tumor-stem-cell-rich sphere cells. […]

[2] = tested on: SNU-5 cells; assay: as above; type: binding, human
Description: as §1, §2, §3

[3] = tested on: BGC-823 sphere cells; assay: sphere-forming inhibition (self-renewal); type: cell-based, human
Description: (§4) The main manifestation of the self-renewal ability of tumor stem cells is the ability to form spheres in serum-free medium, which is called asymmetric division, that is, when one cell divides into two daughter cells, one of the daughter cells maintains the same features as the parental cell, while the other daughter cell may continue to divide, forming normal daughter cells. […] And then Hetumomab (250 μg/mL) was used as the experimental group, and the PBS was used as a negative control group to incubate with the cells at 37° C. for 2 h, during which the cells were mixed with the antibody or the negative control once every half an hour. 500 cells in each group were inoculated into a semi-solid sphere medium (containing EGF, LIF, bFGF, etc.) containing 0.8% methylcellulose, and cultured in an ultra-low adhesion 24-well plate. 1-1.5 mL liquid medium was added every other day, and the number of spheres formed from the two groups was observed after 14 days.

[4] = tested on: Bel7402-V13 sphere cells; assay: sphere-forming inhibition (self-renewal); type: cell-based, human
Description: as §4

[5] = tested on: MHCC-97L sphere cells; assay: sphere-forming inhibition (self-renewal); type: cell-based, human
Description: as §4

[6] = tested on: SNU-5 sphere cells; assay: sphere-forming inhibition (self-renewal); type: cell-based, human
Description: as §4

[7] = tested on: antigen protein in SNU-5, BGC-823, MHCC-97L, BEL7402 V13 total proteins; assay: Western Blotting of tumor cell total proteins; type: binding, human; conditions: primary antibody 2 ug/ml
Description: Total proteins of 4 kinds of Hetumomab target antigen-positive human tumor cells SNU-5, BGC-823, MHCC-97L, BEL7402 V13 were extracted by conventional methods, and the protein concentrations were quantified by a BCA kit. An appropriate amount of the protein sample (20 μg) was separated by SDS-polyacrylamide gel electrophoresis and transferred to a PVDF membrane using a semi-dry electroporator. The PVDF membrane was then placed in blocking solution (TBST/5% skimmed milk powder) and incubated on a horizontal shaker at room temperature for 1 h. […] The membrane was then rinsed 5 times with TBST for 5 min each. Then the secondary antibody (1:2000 to 1:5000 dilution) against human IgG Fc-HRP or against mouse IgG Fc-HRP was added accordingly and incubated at room temperature for 1 h. The membrane was then rinsed 3 times with TBST for 5 min each, and then rinsed with PBS 3 times. Visualization was conducted.

[8] = tested on: Hetumomab target antigen in liver, lung, gastric cancer tissue sections; assay: immunohistochemistry of antigen-positive and negative tissue sections; type: binding, human
[9] = BGC-823, antibody 10 ug/ml, Table 27
[10] = BGC-823, antibody 10 ug/ml, Table 33
[11] = BGC-823, antibody 20 ug/ml, Table 27
[12] = BGC-823, antibody 20 ug/ml, Table 33
[13] = BGC-823, antibody 40 ug/ml, Table 27
[14] = BGC-823, antibody 40 ug/ml, Table 33
[15] = BGC-823, antibody 80 ug/ml, Table 27
[16] = BGC-823, antibody 80 ug/ml, Table 33
[17] = BGC-823, antibody 144 ug/ml, Table 27
[18] = BGC-823, antibody 160 ug/ml, Table 33
[19] = BEL7402 V13, antibody 10 ug/ml, Table 27
[20] = BEL7402 V13, antibody 10 ug/ml, Table 33
[21] = BEL7402 V13, antibody 20 ug/ml, Table 27
[22] = BEL7402 V13, antibody 20 ug/ml, Table 33
[23] = BEL7402 V13, antibody 40 ug/ml, Table 27
[24] = BEL7402 V13, antibody 40 ug/ml, Table 33
[25] = BEL7402 V13, antibody 80 ug/ml, Table 27
[26] = BEL7402 V13, antibody 80 ug/ml, Table 33
[27] = BEL7402 V13, antibody 144 ug/ml, Table 27
[28] = BEL7402 V13, antibody 160 ug/ml, Table 33
[29] = SNU-5, antibody 10 ug/ml, Table 27
[30] = SNU-5, antibody 10 ug/ml, Table 33
[31] = SNU-5, antibody 20 ug/ml, Table 27
[32] = SNU-5, antibody 20 ug/ml, Table 33
[33] = SNU-5, antibody 40 ug/ml, Table 27
[34] = SNU-5, antibody 40 ug/ml, Table 33
[35] = SNU-5, antibody 80 ug/ml, Table 27
[36] = SNU-5, antibody 80 ug/ml, Table 33
[37] = SNU-5, antibody 144 ug/ml, Table 27
[38] = SNU-5, antibody 160 ug/ml, Table 33

B1: Hetumomab: mouse monoclonal antibody (IgG1, κ) against human tumor stem cells, hybridoma CGMCC NO. 12251; VL SEQ ID NO:1, VH SEQ ID NO:5 (antibody, V domains shown)
VH: QVTLKESGPGILQPSQTLSLTCSFSGFSLSTSGMGVSWIRQPSGKGLEWLAHIYWDDDKRYNPSLKSRLTISKDSSNNQVFLKITSVDTADTATYYCARSFYYYANNSFAYWGQGTLVTVSS
VL: DIVMTQAAFSNPVTLGTSASISCRSSKSLLHSNGITYLYWFLQKPGQSPQLLIYQMSNLASGVPDRFSSSGSGTDFTLRISRVEAEDVGVYYCAQNLELYTFGGGTKLEIK
modifications: Hetumomab heavy chain variable region; Hetumomab light chain variable region
Fold Enrichment ([1]; BGC-823, Table 6): 2.53
ratio of positive cells, Cells from Sphere Culture ([1]; BGC-823, Table 6): 7.45%
ratio of positive cells, Parental Cells ([1]; BGC-823, Table 6): 2.95%
Fold Enrichment ([1]; BGC-823, Table 26): 1.2
positive rate, Parental Cells ([1]; BGC-823, Table 26): 4.3%
positive rate, Sphere Cells ([1]; BGC-823, Table 26): 5%
Fold Enrichment ([2]; SNU-5, Table 6): 2.13
ratio of positive cells, Cells from Sphere Culture ([2]; SNU-5, Table 6): 7.19%
ratio of positive cells, Parental Cells ([2]; SNU-5, Table 6): 3.38%
Fold Enrichment ([2]; SNU-5, Table 26): 1.4
positive rate, Parental Cells ([2]; SNU-5, Table 26): 6.91%
positive rate, Sphere Cells ([2]; SNU-5, Table 26): 9.75%
Average number of formed spheres [3, 9]: 206
Inhibition Rate (%) [3, 9]: 13.1%
Average number of formed spheres [3, 10]: 211
Inhibition Rate (%) [3, 10]: 16.6%
Average number of formed spheres [3, 11]: 183
Inhibition Rate (%) [3, 11]: 22.8%
Average number of formed spheres [3, 12]: 190
Inhibition Rate (%) [3, 12]: 24.9%
Average number of formed spheres [3, 13]: 162
Inhibition Rate (%) [3, 13]: 31.6%
Average number of formed spheres [3, 14]: 176
Inhibition Rate (%) [3, 14]: 30.4%
Average number of formed spheres [3, 15]: 150
Inhibition Rate (%) [3, 15]: 36.7%
Average number of formed spheres [3, 16]: 156
Inhibition Rate (%) [3, 16]: 38.3%
Average number of formed spheres [3, 17]: 137.5
Inhibition Rate (%) [3, 17]: 42.0%
Average number of formed spheres [3, 18]: 130.5
Inhibition Rate (%) [3, 18]: 48.4%
Average number of formed spheres [4, 19]: 193.5
Inhibition Rate (%) [4, 19]: 14.8%
Average number of formed spheres [4, 20]: 192.5
Inhibition Rate (%) [4, 20]: 16.3%
Average number of formed spheres [4, 21]: 171
Inhibition Rate (%) [4, 21]: 24.7%
Average number of formed spheres [4, 22]: 172
Inhibition Rate (%) [4, 22]: 25.2%
Average number of formed spheres [4, 23]: 142.5
Inhibition Rate (%) [4, 23]: 37.2%
Average number of formed spheres [4, 24]: 150
Inhibition Rate (%) [4, 24]: 34.8%
Average number of formed spheres [4, 25]: 126.5
Inhibition Rate (%) [4, 25]: 44.3%
Average number of formed spheres [4, 26]: 124.5
Inhibition Rate (%) [4, 26]: 45.9%
Average number of formed spheres [4, 27]: 106.5
Inhibition Rate (%) [4, 27]: 53.1%
Average number of formed spheres [4, 28]: 101
Inhibition Rate (%) [4, 28]: 56.1%
inhibition ratio of sphere-formation ([4]; Hetumomab 250 μg/mL vs PBS): 23.9%
number of spheres formed ([4]; Hetumomab 250 μg/mL, 500 cells, 14 days): 212±2.8
Average number of formed spheres ([5]; antibody 10 ug/ml, Table 27): 194
Inhibition Rate (%) ([5]; antibody 10 ug/ml, Table 27): 16.4%
Average number of formed spheres ([5]; antibody 10 ug/ml, Table 33): 204
Inhibition Rate (%) ([5]; antibody 10 ug/ml, Table 33): 15.4%
Average number of formed spheres ([5]; antibody 20 ug/ml, Table 27): 170
Inhibition Rate (%) ([5]; antibody 20 ug/ml, Table 27): 26.7%
Average number of formed spheres ([5]; antibody 20 ug/ml, Table 33): 178
Inhibition Rate (%) ([5]; antibody 20 ug/ml, Table 33): 26.1%
Average number of formed spheres ([5]; antibody 40 ug/ml, Table 27): 155
Inhibition Rate (%) ([5]; antibody 40 ug/ml, Table 27): 33.2%
Average number of formed spheres ([5]; antibody 40 ug/ml, Table 33): 155
Inhibition Rate (%) ([5]; antibody 40 ug/ml, Table 33): 35.7%
Average number of formed spheres ([5]; antibody 80 ug/ml, Table 27): 141
Inhibition Rate (%) ([5]; antibody 80 ug/ml, Table 27): 39.2%
Average number of formed spheres ([5]; antibody 80 ug/ml, Table 33): 141
Inhibition Rate (%) ([5]; antibody 80 ug/ml, Table 33): 40.7%
Average number of formed spheres ([5]; antibody 144 ug/ml, Table 27): 121.5
Inhibition Rate (%) ([5]; antibody 144 ug/ml, Table 27): 47.6%
Average number of formed spheres ([5]; antibody 160 ug/ml, Table 33): 115
Inhibition Rate (%) ([5]; antibody 160 ug/ml, Table 33): 52.3%
Average number of formed spheres [6, 29]: 176.5
Inhibition Rate (%) [6, 29]: 15.6%
Average number of formed spheres [6, 30]: 212
Inhibition Rate (%) [6, 30]: 13.5%
Average number of formed spheres [6, 31]: 161
Inhibition Rate (%) [6, 31]: 23.0%
Average number of formed spheres [6, 32]: 190
Inhibition Rate (%) [6, 32]: 22.4%
Average number of formed spheres [6, 33]: 146
Inhibition Rate (%) [6, 33]: 30.1%
Average number of formed spheres [6, 34]: 164
Inhibition Rate (%) [6, 34]: 33.1%
Average number of formed spheres [6, 35]: 130
Inhibition Rate (%) [6, 35]: 37.8%
Average number of formed spheres [6, 36]: 147
Inhibition Rate (%) [6, 36]: 40.0%
Average number of formed spheres [6, 37]: 119
Inhibition Rate (%) [6, 37]: 43.1%
Average number of formed spheres [6, 38]: 115
Inhibition Rate (%) [6, 38]: 53.1%
Western blot recognition of the antigen protein [7]: specifically bound to the antigen protein
staining of negative tissue sections ([8]; 3 negative sections, Example 8): failed to stain
staining of target antigen-positive tissue sections ([8]; 3 positive sections, Example 8): positively stain
staining of negative tissue sections ([8]; 10 negative sections, Example 11): did not stain
staining of target antigen-positive tissue sections ([8]; 10 positive sections, Example 11): positively stain
